Bridge positions count the residues as written; N and C are the ends. Square brackets hold non-standard residues; d marks the D form. Triazole bridges read from a SMILES are 1,4-linked. Peptide text beside a SMILES is read from it. * marks the point of attachment. ξ: configuration not given here. Biotinyl(3aR,4R,6aS) = O=C1N[C@@H]2[C@@H](CS[C@@H]2CCCCC(=O)*)N1; Biotin = O=C1N[C@H]2[C@H](CS[C@H]2CCCCC(=O)*)N1; Lys(N3) = [N-]=[N+]=NCCCC[C@H](N)C(=O)O; Thr(3ξ) = CC(O)[C@H](N)C(=O)O; AEEEA = NCCOCCOCCOCC(=O)O; Pra = C#CC[C@H](N)C(=O)O
Tests used:
[1] = molecular target: His-tagged CD8α human recombinant protein (Homo sapiens, UniProt P01732); assay: Point ELISA (serum selectivity assay); format: binding; design: purchased Origene TP760215; conditions: 50 nM CD8α in 0%, 10%, 100% (v/v) human serum
Protocol: Point ELISA (Serum selectivity assay).
The selective targeting of biotin-PEG3-modified macrocyclic peptide ligands in a serum background was tested in an ELISA format. […] Other PCCs, including Cy(AKYRG) (SEQ ID NO: 8), CY (PWTHG) (SEQ ID NO: 25), and Cy(wsvnv) (SEQ ID NO: 34), can detect CD8 protein in 10% serum.

trypsin protease = assay: Point ELISA (protease sensitivity assay); conditions: trypsin 1 h at 37° C.; 50 nM CD8α
His-tagged CD8 epitopes = assay: Assay to determine orientation of macrocycle binding to CD8 Epitopes1-2; design: species or system human; conditions: polyglycine-substituted His-tagged CD8 epitopes at 2 μM
Protocol: Assay to determine orientation of macrocycle binding to CD8 Epitopes1-2. […] Wash Buffer without epitope was added as a control. […] Data are shown after subtraction of the no-epitope background.
For this experiment, the CD8 Epitope1 was re-synthesized with a His6 assay handle and polyglycine substitution of the sequences either N-terminal or C-terminal to the location of the click handle (R10) (FIG. 12A). The CD8 Epitope2 was similarly re-synthesized with a His6 assay handle and polyglycine substitution (N-terminal or C-terminal to K58) (FIG. 12B). Point ELISAs for the His-tagged CD8 epitopes were conducted against the immobilized macrocyclic peptide ligands. For PEG3-biotin-modified Cy(wplrf) (SEQ ID NO: 13), Cy(AKYRG) (SEQ ID NO: 8), Cy(rwfnv) (SEQ ID NO: 14), and Cy(ffrly) (SEQ ID NO: 17), maximum ELISA signals were obtained for binding to CD8 Epitope1N (dark bars, FIG. 12C) indicating preferential binding to the N-terminal portion of CD8 Epitope1. […] For PEG3-biotin-modified Cy(HGRGH) (SEQ ID NO: 21) and Cy(wsvnv) (SEQ ID NO: 34), maximum ELISA signals were obtained for binding to CD8 Epitope2C (light grey bars, FIG. 12D) indicating preferential binding to the C-terminal portion of CD8 Epitope2.

Sequence of His-tagged CD8α human recombinant protein (P01732 22-235): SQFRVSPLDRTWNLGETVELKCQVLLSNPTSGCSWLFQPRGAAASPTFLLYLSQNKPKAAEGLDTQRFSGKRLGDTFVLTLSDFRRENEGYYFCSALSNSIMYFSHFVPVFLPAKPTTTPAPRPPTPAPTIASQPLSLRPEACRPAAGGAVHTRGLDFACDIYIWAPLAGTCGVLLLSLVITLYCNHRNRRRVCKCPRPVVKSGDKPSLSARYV

human serum content in which CD8 protein can be detected [1] [% serum]	epitope portion giving maximum ELISA signal (preferential binding) (His-tagged CD8 epitopes)	Compound	stability to trypsin digestion (in words) (trypsin protease)	ELISA signal after trypsin protease treatment (trypsin protease)
10	–	CC(C)[C@H]1NC(=O)[C@@H](CC(N)=O)NC(=O)[C@@H](C(C)C)NC(=O)[C@@H](CO)NC(=O)[C@@H](Cc2c[nH]c3ccccc23)NC(=O)[C@@H](NC(=O)COCCOCCOCCNC(=O)CCCC[C@H]2SC[C@H]3NC(=O)N[C@H]32)Cc2cn(nn2)CCCC[C@@H](C(N)=O)NC1=O [biotin-PEG3-Cy(wsvnv)] ({Biotinyl(3aR,4R,6aS)-AEEEA}-[Pra][dW][dS][dV][dN][dV][Lys(N3)]-NH2; triazole 1-7)	nearly identical signals before and after digestion	–
10	CD8 Epitope1N	C[C@@H]1NC(=O)[C@@H](NC(=O)COCCOCCOCCNC(=O)CCCC[C@H]2SC[C@H]3NC(=O)N[C@H]32)Cc2cn(nn2)CCCC[C@@H](C(N)=O)NC(=O)CNC(=O)[C@H](CCCNC(=N)N)NC(=O)[C@H](Cc2ccc(O)cc2)NC(=O)[C@H](CCCCN)NC1=O [biotin-PEG3-Cy(AKYRG)] ({Biotinyl(3aR,4R,6aS)-AEEEA}-[Pra]AKYRG[Lys(N3)]-NH2; triazole 1-7)	–	30 % of signal
–	–	CC(C)C[C@H]1NC(=O)[C@@H](CO)NC(=O)[C@@H](NC(=O)COCCOCCOCCNC(=O)CCCC[C@H]2SC[C@H]3NC(=O)N[C@H]32)Cc2cn(nn2)CCCC[C@@H](C(N)=O)NC(=O)CNC(=O)[C@@H](Cc2ccccc2)NC(=O)[C@@H](CCCNC(=N)N)NC1=O [biotin-PEG3-Cy(slrfG)] ({Biotinyl(3aR,4R,6aS)-AEEEA}-[Pra][dS][dL][dR][dF]G[Lys(N3)]-NH2; triazole 1-7)	nearly identical signals before and after digestion	–
10	CD8 Epitope2N	CC(O)[C@@H]1NC(=O)[C@H](Cc2c[nH]c3ccccc23)NC(=O)[C@@H]2CCCN2C(=O)[C@@H](NC(=O)COCCOCCOCCNC(=O)CCCC[C@H]2SC[C@H]3NC(=O)N[C@H]32)Cc2cn(nn2)CCCC[C@@H](C(N)=O)NC(=O)CNC(=O)[C@H](Cc2c[nH]cn2)NC1=O (stereo partly drawn) [biotin-PEG3-Cy(PWTHG)] ({Biotinyl(3aR,4R,6aS)-AEEEA}-[Pra]PW[Thr(3ξ)]HG[Lys(N3)]-NH2; triazole 1-7)	–	–
–	CD8 Epitope1N	CC(C)C[C@H]1NC(=O)[C@H]2CCCN2C(=O)[C@@H](Cc2c[nH]c3ccccc23)NC(=O)[C@@H](NC(=O)COCCOCCOCCNC(=O)CCCC[C@@H]2SC[C@@H]3NC(=O)N[C@@H]32)Cc2cn(nn2)CCCC[C@@H](C(N)=O)NC(=O)[C@@H](Cc2ccccc2)NC(=O)[C@@H](CCCNC(=N)N)NC1=O [biotin-PEG3-Cy(wplrf)] ({Biotin-AEEEA}-[Pra][dW][dP][dL][dR][dF][Lys(N3)]-NH2; triazole 1-7)	nearly identical signals before and after digestion	–

Compound	human serum content in which CD8 protein can be detected [1] [% serum]	epitope portion giving maximum ELISA signal (preferential binding) (His-tagged CD8 epitopes)	stability to trypsin digestion (in words) (trypsin protease)	ELISA signal after trypsin protease treatment (trypsin protease)
CC(C)[C@H]1NC(=O)[C@@H](CC(N)=O)NC(=O)[C@@H](Cc2ccccc2)NC(=O)[C@@H](Cc2c[nH]c3ccccc23)NC(=O)[C@@H](CCCNC(=N)N)NC(=O)[C@@H](NC(=O)COCCOCCOCCNC(=O)CCCC[C@@H]2SC[C@@H]3NC(=O)N[C@@H]32)Cc2cn(nn2)CCCC[C@@H](C(N)=O)NC1=O [biotin-PEG3-Cy(rwfnv)] ({Biotin-AEEEA}-[Pra][dR][dW][dF][dN][dV][Lys(N3)]-NH2; triazole 1-7)	–	CD8 Epitope1N	–	80 % of signal
CC(C)C[C@H]1NC(=O)[C@@H](CCCNC(=N)N)NC(=O)[C@@H](Cc2ccccc2)NC(=O)[C@@H](Cc2ccccc2)NC(=O)[C@@H](NC(=O)COCCOCCOCCNC(=O)CCCC[C@@H]2SC[C@@H]3NC(=O)N[C@@H]32)Cc2cn(nn2)CCCC[C@@H](C(N)=O)NC(=O)[C@@H](Cc2ccc(O)cc2)NC1=O [biotin-PEG3-Cy(ffrly)] ({Biotin-AEEEA}-[Pra][dF][dF][dR][dL][dY][Lys(N3)]-NH2; triazole 1-7)	–	CD8 Epitope1N	nearly identical signals before and after digestion	–
